# This is one part of the list.
# B1: Clec2 (Mus musculus), Q9JL99 (protein)
# chain: MQDEDGYITLNIKPRKQALSSAEPASSWWRVMALVLLISSMGLVVGLVALGIMSVTQQKYLLAEKENLSATLQQLAKKFCQELIRQSEIKTKSTFEHKCSPCATKWRYHGDSCYGFFRRNLTWEESKQYCTEQNATLVKTASQSTLDYIAERITSVRWIGLSRQNSKKDWMWEDSSVLRKNGINLSGNTEENMNCAYLHNGKIHPASCKERHYLICERNAGMTRVDQLL
# Experiments:
# Experiment in all cases: glycan array binding signal (z-score within array); higher = stronger binding
# Settings in all cases: glycan notation: IUPAC condensed, linker removed
# [1] = target: Gal(b1-4)GlcNAc(b1-3)Gal(b1-4)GlcNAc(b1-3)[Gal(b1-4)GlcNAc(b1-3)Gal(b1-4)GlcNAc(b1-6)]GalNAc
# Summary of the method: (§1)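 From the Consortium for Functional Glycomics database, 3228 arrays were curated, keeping only those whose protein sequence was available. Binding is given as a within-array Z-score averaged across arrays sharing a protein sequence and across linkers. Negative Z-scores can be read as non-binding.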
# [2] = target: Gal(b1-4)GlcNAc(b1-3)Gal(b1-4)GlcNAc(b1-6)[Gal(b1-3)]GalNAc
# Summary of the method: as §1
# [3] = target: Gal(b1-4)GlcNAc(b1-3)Gal(b1-4)[Fuc(a1-3)]GlcNAc(b1-3)Gal(b1-4)[Fuc(a1-3)]GlcNAc
# Summary of the method: as §1
# [4] = target: Gal(b1-4)GlcNAc(b1-3)GalNAc
# Summary of the method: as §1
# [5] = target: Gal(b1-4)GlcNAc(b1-3)[Fuc(a1-3)GlcNAc(b1-6)]Gal(b1-4)Glc
# Summary of the method: as §1
# [6] = target: Gal(b1-4)GlcNAc(b1-3)[Gal(b1-4)GlcNAc(b1-6)]Gal(b1-4)GlcNAc
# Summary of the method: as §1
# [7] = target: Gal(b1-4)GlcNAc(b1-3)[GlcNAc(b1-6)]Gal(b1-4)GlcNAc
# Summary of the method: as §1
# [8] = target: Gal(b1-4)GlcNAc(b1-6)Gal(b1-4)GlcNAc
# Summary of the method: as §1
# [9] = target: Gal(b1-4)GlcNAc(b1-6)GalNAc
# Summary of the method: as §1
# [10] = target: Gal(b1-4)GlcNAc(b1-6)[Gal(b1-3)]GalNAc
# Summary of the method: as §1
# [11] = target: Gal(b1-4)GlcNAc(b1-6)[Gal(b1-4)GlcNAc(b1-3)]GalNAc
# Summary of the method: as §1
# Gal(b1-4)GlcNAc6P = target: Gal(b1-4)GlcNAc6P
# Summary of the method: as §1
# Gal(b1-6)Gal = target: Gal(b1-6)Gal
# Summary of the method: as §1
# Gal3S(b1-3)GalNAc = target: Gal3S(b1-3)GalNAc
# Summary of the method: as §1
# Gal3S(b1-3)GlcNAc = target: Gal3S(b1-3)GlcNAc
# Summary of the method: as §1
# [12] = target: Gal3S(b1-3)[Fuc(a1-4)]GlcNAc
# Summary of the method: as §1
# Gal3S(b1-4)Glc = target: Gal3S(b1-4)Glc
# Summary of the method: as §1
# Gal3S(b1-4)Glc6S = target: Gal3S(b1-4)Glc6S
# Summary of the method: as §1
# Gal3S(b1-4)GlcNAc = target: Gal3S(b1-4)GlcNAc
# Summary of the method: as §1
# [13] = target: Gal3S(b1-4)[Fuc(a1-3)]Glc6S
# Summary of the method: as §1
# [14] = target: Gal3S(b1-4)[Fuc(a1-3)]GlcNAc
# Summary of the method: as §1
# [15] = target: Gal3S(b1-4)[Fuc(a1-3)]GlcNAc6S
# Summary of the method: as §1
# Gal3S4S(b1-4)GlcNAc = target: Gal3S4S(b1-4)GlcNAc
# Summary of the method: as §1
# Gal3S6S(b1-4)GlcNAc = target: Gal3S6S(b1-4)GlcNAc
# Summary of the method: as §1
# Gal3S6S(b1-4)GlcNAc6S = target: Gal3S6S(b1-4)GlcNAc6S
# Summary of the method: as §1
# Gal4S(b1-4)GlcNAc = target: Gal4S(b1-4)GlcNAc
# Summary of the method: as §1
# Gal4S6S(b1-4)GlcNAc = target: Gal4S6S(b1-4)GlcNAc
# Summary of the method: as §1
# Gal6P(b1-4)GlcNAc = target: Gal6P(b1-4)GlcNAc
# Summary of the method: as §1
# Gal6S(b1-3)GlcNAc = target: Gal6S(b1-3)GlcNAc
# Summary of the method: as §1
# Gal6S(b1-3)GlcNAc6S = target: Gal6S(b1-3)GlcNAc6S
# Summary of the method: as §1
# Gal6S(b1-4)Glc = target: Gal6S(b1-4)Glc
# Summary of the method: as §1
# Gal6S(b1-4)Glc6S = target: Gal6S(b1-4)Glc6S
# Summary of the method: as §1
# Gal6S(b1-4)GlcNAc = target: Gal6S(b1-4)GlcNAc
# Summary of the method: as §1
# Gal6S(b1-4)GlcNAc6S = target: Gal6S(b1-4)GlcNAc6S
# Summary of the method: as §1
# GalNAc(a1-3)Gal = target: GalNAc(a1-3)Gal
# Summary of the method: as §1
# GalNAc(a1-3)GalNAc = target: GalNAc(a1-3)GalNAc
# Summary of the method: as §1
# [16] = target: GalNAc(a1-3)GalNAc(b1-3)Gal(a1-4)Gal(b1-4)Glc
# Summary of the method: as §1
# [17] = target: GalNAc(a1-3)GalNAc(b1-3)Gal(a1-4)Gal(b1-4)GlcNAc
# Summary of the method: as §1
# GalNAc(b1-3)Gal = target: GalNAc(b1-3)Gal
# Summary of the method: as §1
# [18] = target: GalNAc(b1-3)Gal(a1-4)Gal(b1-4)GlcNAc
# Summary of the method: as §1
# [19] = target: GalNAc(b1-3)Gal(a1-4)Gal(b1-4)GlcNAc(b1-3)Gal(b1-4)Glc
# Summary of the method: as §1
# [20] = target: GalNAc(b1-3)Gal(a1-6)Gal(b1-4)Glc
# Summary of the method: as §1
# GalNAc(b1-3)GalNAc = target: GalNAc(b1-3)GalNAc
# Summary of the method: as §1
# GalNAc(b1-3)GlcNAc = target: GalNAc(b1-3)GlcNAc
# Summary of the method: as §1
# GalNAc(b1-4)Gal(b1-4)Glc = target: GalNAc(b1-4)Gal(b1-4)Glc
# Summary of the method: as §1
binder,measurement,setting,value
B1,glycan array binding signal (z-score),[1],-0.118
same,glycan array binding signal (z-score),[2],-0.123
same,glycan array binding signal (z-score),[3],0.099
same,glycan array binding signal (z-score),[4],-0.487
same,glycan array binding signal (z-score),[5],-0.171
same,glycan array binding signal (z-score),[6],-0.65
same,glycan array binding signal (z-score),[7],-0.566
same,glycan array binding signal (z-score),[8],-0.465
same,glycan array binding signal (z-score),[9],0.915
same,glycan array binding signal (z-score),[10],-0.432
same,glycan array binding signal (z-score),[11],0.236
same,glycan array binding signal (z-score),Gal(b1-4)GlcNAc6P,1.94
same,glycan array binding signal (z-score),Gal(b1-6)Gal,0.006
same,glycan array binding signal (z-score),Gal3S(b1-3)GalNAc,1.3
same,glycan array binding signal (z-score),Gal3S(b1-3)GlcNAc,-0.246
same,glycan array binding signal (z-score),[12],0.009
same,glycan array binding signal (z-score),Gal3S(b1-4)Glc,1.36
same,glycan array binding signal (z-score),Gal3S(b1-4)Glc6S,3.71
same,glycan array binding signal (z-score),Gal3S(b1-4)GlcNAc,0.642
same,glycan array binding signal (z-score),[13],1.03
same,glycan array binding signal (z-score),[14],-0.092
same,glycan array binding signal (z-score),[15],2.96
same,glycan array binding signal (z-score),Gal3S4S(b1-4)GlcNAc,2
same,glycan array binding signal (z-score),Gal3S6S(b1-4)GlcNAc,2.42
same,glycan array binding signal (z-score),Gal3S6S(b1-4)GlcNAc6S,4.08
same,glycan array binding signal (z-score),Gal4S(b1-4)GlcNAc,-0.404
same,glycan array binding signal (z-score),Gal4S6S(b1-4)GlcNAc,1.55
same,glycan array binding signal (z-score),Gal6P(b1-4)GlcNAc,3.62
same,glycan array binding signal (z-score),Gal6S(b1-3)GlcNAc,0.174
same,glycan array binding signal (z-score),Gal6S(b1-3)GlcNAc6S,3.2
same,glycan array binding signal (z-score),Gal6S(b1-4)Glc,0.295
same,glycan array binding signal (z-score),Gal6S(b1-4)Glc6S,0.896
same,glycan array binding signal (z-score),Gal6S(b1-4)GlcNAc,0.012
same,glycan array binding signal (z-score),Gal6S(b1-4)GlcNAc6S,2.13
same,glycan array binding signal (z-score),GalNAc(a1-3)Gal,-0.406
same,glycan array binding signal (z-score),GalNAc(a1-3)GalNAc,-0.674
same,glycan array binding signal (z-score),[16],-0.489
same,glycan array binding signal (z-score),[17],-0.199
same,glycan array binding signal (z-score),GalNAc(b1-3)Gal,-0.428
same,glycan array binding signal (z-score),[18],0.28
same,glycan array binding signal (z-score),[19],-0.625
same,glycan array binding signal (z-score),[20],-0.858
same,glycan array binding signal (z-score),GalNAc(b1-3)GalNAc,-0.731
same,glycan array binding signal (z-score),GalNAc(b1-3)GlcNAc,-0.622
same,glycan array binding signal (z-score),GalNAc(b1-4)Gal(b1-4)Glc,1.12

# From the supplement of paper PMC8728848
